According to PubChem BioAssay AID504339 (National Center for Advancing Translational Sciences (NCATS), 2011):
Values joined by “and” are separate entries in the source; they are usually repeats but may differ in a detail not shown here. Equal values may be shown once. About 17,000 (4.4%) of roughly 390,000 compounds were called active. Inconclusive results, whose numbers are uncertain, are shown with a selection of clear calls. Calls come from the whole dose curve; as a rule, active = well fitted inhibition curve with a large enough effect; inconclusive = small, poorly fitted or top-dose-only effect; inactive = no such curve, though single readings can be large or run the other way. Where the call is inconclusive, the potency comes from a doubtful curve fit.
% is set by controls: 0 for no effect and ±100 for the full control effect; potency is the fitted concentration of half-maximal effect; tags give direction and shape of the fitted curve.
Note: nearly all actives have a fitted effect of over 50% in size.

Each compound was assayed against Lysine-specific demethylase 4A (Homo sapiens) (UniProt O75164) (assay: qHTS Assay for Inhibitors of JMJD2A-Tudor Domain). Details: AlphaScreen JMJD2A-Tudor / H3K4me3 peptide binding; activity change, negative = inhibition: at 114 µM (top of the series).
Chain of UniProt O75164 (O75164 whole entry, looked up, the tested form may be a part): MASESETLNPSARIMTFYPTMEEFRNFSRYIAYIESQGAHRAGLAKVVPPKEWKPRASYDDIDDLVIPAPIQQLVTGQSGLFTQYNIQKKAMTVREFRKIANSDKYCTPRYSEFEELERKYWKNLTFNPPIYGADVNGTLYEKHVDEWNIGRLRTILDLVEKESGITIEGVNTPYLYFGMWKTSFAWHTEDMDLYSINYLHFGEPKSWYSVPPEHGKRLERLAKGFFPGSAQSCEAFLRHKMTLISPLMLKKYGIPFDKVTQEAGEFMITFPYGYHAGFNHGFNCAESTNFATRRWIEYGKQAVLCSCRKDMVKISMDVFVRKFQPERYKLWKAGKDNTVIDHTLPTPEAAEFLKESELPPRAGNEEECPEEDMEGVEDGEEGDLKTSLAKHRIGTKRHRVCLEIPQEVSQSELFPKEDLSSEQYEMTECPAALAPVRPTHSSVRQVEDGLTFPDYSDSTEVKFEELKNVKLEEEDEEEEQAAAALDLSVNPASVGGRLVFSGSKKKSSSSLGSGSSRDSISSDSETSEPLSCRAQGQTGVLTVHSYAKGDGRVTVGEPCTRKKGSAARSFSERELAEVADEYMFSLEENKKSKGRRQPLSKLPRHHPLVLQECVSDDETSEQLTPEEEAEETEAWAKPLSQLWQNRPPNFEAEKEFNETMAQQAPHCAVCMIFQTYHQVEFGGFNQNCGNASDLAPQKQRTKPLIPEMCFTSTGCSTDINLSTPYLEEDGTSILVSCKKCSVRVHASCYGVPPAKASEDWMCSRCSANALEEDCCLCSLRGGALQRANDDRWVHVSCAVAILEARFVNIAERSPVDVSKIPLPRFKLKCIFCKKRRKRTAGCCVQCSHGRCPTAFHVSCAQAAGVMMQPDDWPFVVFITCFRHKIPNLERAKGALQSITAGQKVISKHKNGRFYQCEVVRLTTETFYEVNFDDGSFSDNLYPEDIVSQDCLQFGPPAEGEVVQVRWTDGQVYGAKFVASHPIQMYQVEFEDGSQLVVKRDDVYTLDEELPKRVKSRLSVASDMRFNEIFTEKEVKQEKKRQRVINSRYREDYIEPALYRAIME
`COc1ccc(OC)c(NC(=O)Nc2ccc(Cl)cc2)c1` was tested, and the Potency was inconclusive: 56.2 µM [inhibitor, partial curve].
In the case of `COc1cccc(NC(=O)CSc2nc3c(sc4ccccc43)c(=O)n2CCCN2CCCC2)c1`, the Potency is reported as inconclusive: 39.8 µM [inhibitor, partial curve].
`Cc1cc(C)c(C#N)c(SCC(=O)N2CCCCC2)n1` was tested, and the Potency was inconclusive: 39.8 µM [inhibitor, single point].
With `CCOC(=O)C1=C(C)NC2=C(C(=O)CCC2)C1c1ccc(O)c(OCC)c1` (stereo unspecified) the Potency was inconclusive: 89.1 µM [inhibitor, single point].
For `COc1ccc(NC(=O)Cn2c(=O)n(Cc3ccco3)c(=O)c3oc4ccccc4c32)cc1Cl`, the “activity change, negative = inhibition” value was inactive: -15.4%.
In the case of `CC[C@@H](C)[C@@H]1CN([C@@H](CN2CCC[C@H]2CN2C(N)=NC[C@H]2CC(C)C)C(C)C)C(=N)N1CCCC1CCCC1`, the Potency is reported as inconclusive: 89.1 µM [inhibitor, partial curve].
`O=C(NN=Cc1ccccc1C(=O)O)C(=O)NN=Cc1ccccc1C(=O)O` was tested, and the Potency was active: 50.1 µM.
In the case of `CN1c2ccccc2C(C)(C)C12C=Nc1c(cc(N3CCOCC3)c3ccccc13)O2` (stereo unspecified), the Potency is reported as inconclusive: 28.2 µM [inhibitor, partial curve].
`COc1ccccc1NC(=O)C(Cc1ccccc1)NS(=O)(=O)c1cccc2nsnc12` (stereo unspecified) was tested, and the Potency was inconclusive: 25.1 µM [inhibitor, full curve, poor fit].
In the case of `O=C(CC1SC2=NCCN2C1=O)Nc1ccc(Br)cc1` (stereo unspecified), the “activity change, negative = inhibition” value is reported as inactive: -18.3%.
In the case of `COc1ccc(-c2csc(NC(=O)Cc3ccccc3F)n2)cc1OC`, the Potency is reported as inconclusive: 56.2 µM [inhibitor, partial curve, poor fit].
With `COc1ccc(C(=S)N2CCOCC2)cc1OC(=O)c1ccc([N+](=O)[O-])cc1` the Potency was inconclusive: 56.2 µM [inhibitor, partial curve].
In the case of `COc1ccc2c(c1)-c1nc(/N=C/c3ccccc3O)sc1CC2`, the Potency is reported as inconclusive: 28.2 µM [inhibitor, single point].
With `COc1ccc(S(=O)(=O)N(Cc2nc(-c3ccc(Cl)cc3)no2)C2CCCCC2)cc1` the “activity change, negative = inhibition” value was inactive: 8.68%.
`CCn1c(SCc2nc3ccccc3c(=O)[nH]2)nc2ccccc21` was tested, and the Potency was inconclusive: 39.8 µM [inhibitor, single point].
For `C/C(=N\N=C1\NC(=O)C(CC(=O)O)S1)c1ccccn1` (stereo unspecified), the Potency was inconclusive: 79.4 µM [inhibitor, single point].
With `CCCCC(c1nnnn1CS(=O)(=O)c1ccc(C)cc1)N1CCN(c2ccccc2)CC1` (stereo unspecified) the Potency was inconclusive: 89.1 µM [inhibitor, single point].
`CCc1nc2ccc(C(=O)NCCc3ccco3)cc2nc1CC` was tested, and the “activity change, negative = inhibition” value was inactive: -21.2%.
With `O=C(NCc1ccc2c(c1)OCO2)c1cccc(S(=O)(=O)N2CCOCC2)c1` the “activity change, negative = inhibition” value was inactive: -4.64%.
For `C[C@H](NC(=O)c1nc[nH]c1C(=O)N1CCNCC1)C(=O)OC(C)(C)C`, the Potency was active: 35.5 µM.
In the case of `COc1cc(/C=C2\C(=N)N3N=C(S(C)(=O)=O)SC3=NC2=O)ccc1OC(=O)c1ccco1`, the Potency is reported as inconclusive: 44.7 µM [inhibitor, partial curve, poor fit].
`O=C(O)CC1CCS(=O)(=O)C1` (stereo unspecified) was tested, and the “activity change, negative = inhibition” value was inactive: -22.3%.
With `CN1CCN(c2nc(Nc3ccc(F)cc3)nc(Nc3ccc(F)cc3)n2)CC1` the Potency was inconclusive: 56.2 µM [inhibitor, partial curve].
For `CCOc1ccc(Nc2sc(C(=O)c3cccc(OC)c3)c(N)c2S(=O)(=O)c2ccccc2)cc1`, the “activity change, negative = inhibition” value was inactive: -27.5%.
For `Cc1nn(-c2ccccc2)c(C)c1/C=N/n1c(-c2ccncc2)n[nH]c1=S`, the activity change, negative = inhibition was inconclusive: -95.7% [inhibitor].
`COc1cc(OC)cc(C(=O)Nc2cc(-c3nc4cccnc4s3)ccc2C)c1` was tested, and the Potency was inconclusive: 44.7 µM [inhibitor, partial curve].
`Cc1c(C(=O)OC2CCCCCC2)[nH]c2c1C(=O)CC(c1ccc(N(C)C)cc1)C2` (stereo unspecified) was tested, and the Potency was inconclusive: 12.6 µM [inhibitor, full curve].
`Cc1ccc(NC(=O)CSc2ccc(-c3ccccn3)nn2)cc1F` was tested, and the Potency was inconclusive: 12.6 µM [inhibitor, partial curve] and inconclusive: 3.55 µM [inhibitor, full curve, poor fit].
`c1cncc(-c2csc(NCc3ccco3)n2)c1` was tested, and the Potency was inconclusive: 50.1 µM [inhibitor, partial curve].
With `CC1(OC(=O)C2CCCC2)C(=O)C=C2C=C(c3ccsc3)N(Cc3ccccc3)C=C2C1=O` (stereo unspecified) the Potency was inconclusive: 56.2 µM [inhibitor, partial curve].
`COc1ccc(-c2ccc(C3C4C=CCCC4(C)C(=O)N3Cc3ccccc3)c(F)c2)cc1OC` (stereo unspecified) was tested, and the Potency was inconclusive: 50.1 µM [inhibitor, partial curve].
`Oc1c(Br)cc(Br)cc1CNc1cnc2ccccc2c1` was tested, and the Potency was inconclusive: 56.2 µM [inhibitor, partial curve].
`CN(C)c1ccc(NC(=O)c2cccc([N+](=O)[O-])c2)c2ccccc12` was tested, and the Potency was inconclusive: 56.2 µM [inhibitor, partial curve].
For `Oc1ccc(-c2n[nH]c(=S)n2-c2ccc3c(c2)OCCO3)cc1`, the Potency was inconclusive: 4.47 µM [inhibitor, partial curve, poor fit].
`COc1cccc(C2c3c(ncn(-c4ccccc4SC)c3=N)Oc3ccc4ccccc4c32)c1` (stereo unspecified) was tested, and the Potency was inconclusive: 39.8 µM [inhibitor, full curve].
With `COc1ccc(C2c3c(ncn(CCCN4CCOCC4)c3=N)Oc3ccc4ccccc4c32)cc1OC` (stereo unspecified) the Potency was inconclusive: 56.2 µM [inhibitor, partial curve].
In the case of `O=C(c1ccccc1)N1CCC(c2nc3c(nnn3Cc3ccco3)c(=O)[nH]2)CC1`, the “activity change, negative = inhibition” value is reported as inactive: -18.6%.
For `COc1ccc(-c2nc(CN3CCC(C(=O)NC4CCCC4)CC3)c(C)o2)cc1OC`, the “activity change, negative = inhibition” value was inactive: 4.71%.
In the case of `COc1ccc(N2CCN(C(=O)CN(c3ccc(OC)cc3)S(=O)(=O)c3ccccc3)CC2)cc1`, the Potency is reported as inconclusive: 22.4 µM [inhibitor, full curve].
`Cc1ccc(NCc2ccccc2)cc1` was tested, and the Potency was inconclusive: 44.7 µM [inhibitor, partial curve].
For `COCCn1c(-c2ccc(OC)cc2)nc2oc3cc(OC)ccc3c(=O)c2c1=O`, the “activity change, negative = inhibition” value was inactive: -20.9%.
